Measured values reported in PubChem BioAssay AID1508642 (National Center for Advancing Translational Sciences (NCATS), 2021).
Screen size: about 43,000 compounds; about 200 (0.47%) were called active. Inconclusive means that the source gave no clear call. Such entries were picked first, then a sample of the others. The call rests on the fitted dose curve; in most records, active means well fitted cell-killing curve with a large enough effect; inconclusive means small, poorly fitted or top-dose-only effect, or effect the other way; inactive means flat fitted curve, though single readings scatter. Potencies of inconclusive entries are doubtful fits and often do not repeat.

Experiment: Cell viability qHTS assay in S16 Pmp22-F2sN cells; further: nearly all actives have a fitted effect of over 65% in size
Details: S16 Pmp22-F2sN Schwann cells (luciferase reporters placed in the Pmp22 gene) viability, CellTiter-Glo, 24 h; activity change, negative = cytotoxicity: at 57.5 µM (top of the series)
Summary of the method: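 Rat S16 Schwann reporter line, 24 h treatment with library compounds delivered at 23 nL per well. Cell viability by CellTiter-Glo luminescence.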
On the % scale 0 is the no-effect control and ±100 the full control effect; potency means the concentration at half of the fitted maximal effect; tags describe the fitted curve by direction and shape.

| Structure (SMILES) | activity change, negative = cytotoxicity | Potency |
| --- | --- | --- |
| Cn1c(=O)c2c(nc(NCc3ccccc3)n2Cc2ccc(Cl)c(Cl)c2)n(C)c1=O | inactive: -24.4% | – |
| COc1ccc(-c2noc(CSc3nnc(C)n3-c3ccc(C)cc3)n2)cc1 | – | inconclusive: 11.2 µM [cytotoxic, partial curve, poor fit] |
| CCOc1cc(Cl)c(S(=O)(=O)n2cc(C)nc2CC)cc1Cl | – | inconclusive: 0.0316 µM [cytotoxic, full curve, poor fit] |
| Cc1c(NC(=O)c2ccc(-c3ccc(F)cc3)o2)cccc1-c1nc2ncccc2o1 | – | inconclusive: 3.55 µM [rising, partial curve, poor fit] |
| COc1cc(NC(=O)CCCN2C(=O)CCn3nc(-c4cn(C)c5ccccc45)cc32)cc(OC)c1 | – | inconclusive: 39.8 µM [rising, single point] |
| CCOc1ccccc1CNC(=O)c1cc2oc3ccccc3c2n1CC | – | inconclusive: 20 µM [cytotoxic, partial curve] |
| Cc1ccc(C)c(N2CCN(CCCNC(=O)c3ccc4nc(C(C)C)oc4c3)CC2)c1 | – | inconclusive: 31.6 µM [cytotoxic, single point] |
| CCCN(C(=O)Cn1nc(Cc2cccnc2)c2ccccc2c1=O)c1ccc(C(C)C)cc1 | inactive: -9.13% | – |
| CC1=C(C(=O)OC2CCCCCC2)C(c2c(Cl)cccc2Cl)CC(=O)N1 (stereo not drawn) | – | inconclusive: 11.2 µM [rising, partial curve, poor fit] |
| COc1ccc(CCNC(=O)c2cc(-c3ccc(C)c(C)c3)nc3ccccc23)cc1OC | – | inconclusive: 39.8 µM [rising, single point] |
| CCCn1c2ccc(C)cc2c2nnc(SCCN3CCCCC3)nc21 | – | inconclusive: 15.8 µM [cytotoxic, partial curve, poor fit] |
| COc1cc(/C=C(\C#N)c2nc3ccc(C)cc3[nH]2)ccc1OCc1ccc(C)cc1 | – | inconclusive: 39.8 µM [cytotoxic, single point] |
| Cc1ccc(OCCSc2nc(-c3ccccc3C)nc3cc(=O)[nH]n23)cc1Cl | inconclusive: 34.6% | – |
| CC(=O)Nc1ccc(NC(=O)c2nc(S(=O)(=O)Cc3ccc(F)cc3)ncc2Cl)cc1 | – | active: 3.55 µM |
| Cn1nc(-c2ccccc2F)c2cc(C(=O)NCc3ccccc3Cl)sc21 | – | inconclusive: 35.5 µM [cytotoxic, single point] |
| COc1ccc(N2CCN(S(=O)(=O)c3ccc(F)c(C(=O)Nc4ccccc4Cl)c3)CC2)cc1 | – | inconclusive: 14.1 µM [cytotoxic, partial curve, poor fit] |
| COc1ccc(CC(=O)N2CCc3cc(OC)c(OC)cc3C2COc2ccc(F)cc2)cc1 (stereo not drawn) | – | inconclusive: 22.4 µM [cytotoxic, single point] |
| COc1ccc(NS(=O)(=O)c2ccc(N3CCCCS3(=O)=O)cc2)cc1Cl | – | inconclusive: 3.16 µM [cytotoxic, full curve] |
| CCCOc1ccc(C2c3c(-c4ccccc4O)n[nH]c3C(=O)N2CCc2ccccc2)cc1OCC (stereo not drawn) | – | inconclusive: 28.2 µM [cytotoxic, single point] |

| Structure (SMILES) | activity change, negative = cytotoxicity | Potency |
| --- | --- | --- |
| CCCN1CCN(CCCNC(=O)c2cc3c(=O)n(CC)c4ccccc4c3s2)CC1 | inactive: -1.45% | – |
| Cc1ccc(NC(=O)c2cc(S(=O)(=O)N3CCC4(CC3)OCCO4)ccc2F)cc1Cl | – | inconclusive: 28.2 µM [cytotoxic, single point] |
| CCCCN(CCCNC(=O)c1cc(Nc2cccc(SC)c2)nc2ccccc12)Cc1ccccc1 | – | inconclusive: 31.6 µM [cytotoxic, single point] |
| Cc1ccc(-n2c(SCc3ccccc3F)nc3[nH]ncc3c2=O)cc1Cl | inactive: -26.2% | – |
| CCOC(=O)N1CCc2c(sc3c2C(=O)NC(c2ccc(N(C)C)cc2)N3)C1 (stereo not drawn) | – | inconclusive: 3.55 µM [cytotoxic, full curve, poor fit] |
| O=C(Cn1c(SCc2ccc(F)cc2)nc2cccnc21)Nc1ccccc1F | – | inconclusive: 39.8 µM [cytotoxic, single point] |
| CCCCN(C)CC(O)Cn1cc(/C=C/C(=O)c2ccc(Br)cc2)c2ccccc21 (stereo not drawn) | – | inconclusive: 39.8 µM [cytotoxic, single point] |
| CC(=O)c1ccc(NC(=O)CSC2=Nc3ccccc3N=C(c3ccc(F)cc3)C2)cc1 | – | inconclusive: 1.26 µM [rising, partial curve, poor fit] |
| CCC(Cc1ccccc1)NC(=O)Cn1nc(C)n2c(cc3occc32)c1=O (stereo not drawn) | – | inconclusive: 0.355 µM [rising, full curve, poor fit] |
| Cc1ccc(-n2nc3c(=O)n(C(C)C(=O)NCc4ccc(OC(C)C)cc4)nc(C)c3c2C)cc1 (stereo not drawn) | – | inconclusive: 31.6 µM [cytotoxic, single point] |
| COc1ccc2c(CNCc3cccs3)c(C(=O)O)n(Cc3ccc(F)cc3)c2c1 | – | inconclusive: 31.6 µM [cytotoxic, single point] |
| CCN1CCN(c2csc3ccc(Br)cc3c2=O)CC1 | inactive: 13.6% | – |
| O=C(NC1CCN(Cc2ccccc2)CC1)c1ccc(Cn2c(=O)c3ccccc3n(Cc3ccc(Cl)cc3)c2=O)cc1 | inactive: 4.68% | – |
| CCOC(=O)c1cnc2c(ccc3ccccc32)c1Nc1ccc(C(C)=O)cc1 | – | inconclusive: 35.5 µM [cytotoxic, partial curve, poor fit] |
| O=S(=O)(c1ccc(Cl)cc1)c1nc(-c2cccs2)oc1N1CCCCC1 | – | inconclusive: 0.355 µM [rising, full curve, poor fit] |
| O=C(Nc1nc2c(F)cc(F)cc2s1)c1ccc(S(=O)(=O)N2CCc3ccccc32)cc1 | – | inconclusive: 39.8 µM [cytotoxic, single point] |
| CCN1C(C(=O)c2ccccc2)=C(OC(=O)COc2ccc(C)cc2)c2ccccc2S1(=O)=O | – | inconclusive: 22.4 µM [cytotoxic, partial curve, poor fit] |
| CCc1ccccc1Nc1nn2c(=O)c3ccc(C(=O)NCCC4=CCCCC4)cc3nc2s1 | – | inconclusive: 0.224 µM [rising, full curve, poor fit] |
| Cc1ccccc1-c1noc(CSc2nc3ccccc3[nH]2)n1 | inactive: -21.6% | – |
